{
  "source": "the supplement of paper PMC12067093",
  "about": "“Discovery and optimisation of a covalent ligand for TRIM25 and its application to targeted protein ubiquitination” (Chemical Science, 2025)",
  "note": "The full data set covers some 21,000 targets. This sample favours those with the largest changes.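 Further: competitive profiling in live THP-1 cells: cysteine peptides tagged with an iodoacetamide desthiobiotin (IA-DTB) probe, intensity after compound treatment relative to DMSO-treated cells.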",
  "data": [
    {"compound": "Cc1cc(ccc1-c1ccccc1)C(=O)N1CCCN(CC1)C(=O)CCl [compound 10]", "experiment": "probe-labelled cysteine peptide fold change vs DMSO (competition) (log2 fold change); higher = less target engagement (more negative = stronger competition)", "conditions": "10 µM; THP-1; incubation time: 4 h", "values": [
      {"target": "OPA1_O60313_801_CNEEHPAYLASDEITTVR (UniProt O60313)", "probe-labelled cysteine peptide fold change": -0.225},
      {"target": "NDUFAF6_Q330K2_236_VFLPMDICMLHGVSQEDFLR (UniProt Q330K2)", "probe-labelled cysteine peptide fold change": -0.034},
      {"target": "NUP210_Q8TEM1_962_GVAMVHPLLPGSSTIMIHDLCLVFPAPAK (UniProt Q8TEM1)", "probe-labelled cysteine peptide fold change": 0.115},
      {"target": "NPEPPS_P55786_887_TIQQCCENILLNAAWLK (UniProt P55786)", "probe-labelled cysteine peptide fold change": -0.0839},
      {"target": "P4HB_P07237_53+56_YLLVEFYAPWCGHCK (UniProt P07237)", "probe-labelled cysteine peptide fold change": -1.18},
      {"target": "OSBPL1A_Q9BXW6_387_ECDMAK (UniProt Q9BXW6)", "probe-labelled cysteine peptide fold change": -0.806},
      {"target": "NMNAT3_Q96T66_12_IPVVLLACGSFNPITNMHLR (UniProt Q96T66)", "sequence (Q96T66 whole entry, looked up)": "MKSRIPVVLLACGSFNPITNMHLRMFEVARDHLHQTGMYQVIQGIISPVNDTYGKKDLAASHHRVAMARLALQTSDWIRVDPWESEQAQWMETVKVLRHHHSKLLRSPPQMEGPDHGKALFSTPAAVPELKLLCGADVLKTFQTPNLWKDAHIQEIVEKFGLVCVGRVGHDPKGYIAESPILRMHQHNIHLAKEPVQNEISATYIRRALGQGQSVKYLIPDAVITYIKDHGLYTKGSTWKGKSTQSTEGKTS", "probe-labelled cysteine peptide fold change": 0.482},
      {"target": "NUTF2_P61970_80_IQHSITAQDHQPTPDSCIISMVVGQLKADEDPIMGFHQMFLLK (UniProt P61970)", "probe-labelled cysteine peptide fold change": -0.263},
      {"target": "P4HB_P07237_397+400_KNVFVEFYAPWCGHCK (UniProt P07237)", "probe-labelled cysteine peptide fold change": -0.713},
      {"target": "NUP155_O75694_104_RVPLPPELVEQFGHMQCNCMMGVFPPISR (UniProt O75694)", "probe-labelled cysteine peptide fold change": 0.251},
      {"target": "MYO9B_Q13459_1279_SKPCGSPR (UniProt Q13459)", "probe-labelled cysteine peptide fold change": -0.389},
      {"target": "NUP88_Q99567_447_CFVEHILCTK (UniProt Q99567)", "sequence (Q99567 whole entry, looked up)": "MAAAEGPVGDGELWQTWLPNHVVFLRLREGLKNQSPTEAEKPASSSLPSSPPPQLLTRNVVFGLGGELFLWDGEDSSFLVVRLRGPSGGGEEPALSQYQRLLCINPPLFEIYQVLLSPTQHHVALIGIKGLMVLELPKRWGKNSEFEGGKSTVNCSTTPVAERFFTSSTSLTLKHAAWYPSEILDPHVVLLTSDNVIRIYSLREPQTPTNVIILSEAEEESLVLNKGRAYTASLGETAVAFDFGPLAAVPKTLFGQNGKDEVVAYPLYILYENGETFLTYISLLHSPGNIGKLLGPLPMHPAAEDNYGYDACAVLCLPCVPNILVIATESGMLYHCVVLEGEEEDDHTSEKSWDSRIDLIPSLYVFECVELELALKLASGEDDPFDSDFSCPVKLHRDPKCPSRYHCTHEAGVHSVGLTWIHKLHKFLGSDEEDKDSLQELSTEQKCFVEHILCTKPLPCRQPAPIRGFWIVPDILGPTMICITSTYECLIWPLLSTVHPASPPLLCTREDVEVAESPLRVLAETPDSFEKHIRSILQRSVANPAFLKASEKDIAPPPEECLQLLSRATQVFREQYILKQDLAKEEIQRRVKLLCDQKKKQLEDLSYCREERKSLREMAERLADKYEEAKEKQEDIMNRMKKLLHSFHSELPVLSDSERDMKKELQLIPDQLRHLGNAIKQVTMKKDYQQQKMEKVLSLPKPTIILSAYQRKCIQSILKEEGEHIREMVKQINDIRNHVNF", "probe-labelled cysteine peptide fold change": -0.156},
      {"target": "OGFOD2_Q6N063_209_FLQPLMALLYPDCGGGR (UniProt Q6N063)", "sequence (Q6N063 whole entry)": "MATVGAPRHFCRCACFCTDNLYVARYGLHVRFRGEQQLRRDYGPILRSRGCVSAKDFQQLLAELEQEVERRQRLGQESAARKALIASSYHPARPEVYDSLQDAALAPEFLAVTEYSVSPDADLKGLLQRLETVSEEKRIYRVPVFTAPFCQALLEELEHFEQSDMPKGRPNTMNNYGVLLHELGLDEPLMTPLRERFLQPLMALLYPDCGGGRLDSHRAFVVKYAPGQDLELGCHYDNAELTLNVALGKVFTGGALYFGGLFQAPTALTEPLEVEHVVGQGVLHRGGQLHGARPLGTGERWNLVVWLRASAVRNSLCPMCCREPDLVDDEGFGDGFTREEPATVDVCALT", "probe-labelled cysteine peptide fold change": 0.12},
      {"target": "PA2G4_Q9UQ80_87_GIAFPTSISVNNCVCHFSPLK (UniProt Q9UQ80)", "sequence (Q9UQ80 whole entry, looked up)": "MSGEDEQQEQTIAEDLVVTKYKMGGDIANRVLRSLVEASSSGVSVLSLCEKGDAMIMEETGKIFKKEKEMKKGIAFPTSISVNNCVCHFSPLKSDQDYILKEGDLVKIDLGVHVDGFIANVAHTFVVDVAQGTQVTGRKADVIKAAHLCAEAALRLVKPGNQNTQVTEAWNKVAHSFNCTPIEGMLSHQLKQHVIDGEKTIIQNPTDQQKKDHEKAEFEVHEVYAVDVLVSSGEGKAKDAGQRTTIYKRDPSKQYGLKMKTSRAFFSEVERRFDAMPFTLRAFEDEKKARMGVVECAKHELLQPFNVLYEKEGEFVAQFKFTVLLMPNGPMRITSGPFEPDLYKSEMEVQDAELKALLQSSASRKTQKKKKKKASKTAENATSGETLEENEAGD", "probe-labelled cysteine peptide fold change": 0.196},
      {"target": "NFX1_Q12986_615_TCMDPVPSCGK (UniProt Q12986)", "probe-labelled cysteine peptide fold change": -0.151},
      {"target": "OXR1_Q8N573_410_SDTEHSTNEVGTLCHK (UniProt Q8N573)", "sequence (Q8N573 whole entry, looked up)": "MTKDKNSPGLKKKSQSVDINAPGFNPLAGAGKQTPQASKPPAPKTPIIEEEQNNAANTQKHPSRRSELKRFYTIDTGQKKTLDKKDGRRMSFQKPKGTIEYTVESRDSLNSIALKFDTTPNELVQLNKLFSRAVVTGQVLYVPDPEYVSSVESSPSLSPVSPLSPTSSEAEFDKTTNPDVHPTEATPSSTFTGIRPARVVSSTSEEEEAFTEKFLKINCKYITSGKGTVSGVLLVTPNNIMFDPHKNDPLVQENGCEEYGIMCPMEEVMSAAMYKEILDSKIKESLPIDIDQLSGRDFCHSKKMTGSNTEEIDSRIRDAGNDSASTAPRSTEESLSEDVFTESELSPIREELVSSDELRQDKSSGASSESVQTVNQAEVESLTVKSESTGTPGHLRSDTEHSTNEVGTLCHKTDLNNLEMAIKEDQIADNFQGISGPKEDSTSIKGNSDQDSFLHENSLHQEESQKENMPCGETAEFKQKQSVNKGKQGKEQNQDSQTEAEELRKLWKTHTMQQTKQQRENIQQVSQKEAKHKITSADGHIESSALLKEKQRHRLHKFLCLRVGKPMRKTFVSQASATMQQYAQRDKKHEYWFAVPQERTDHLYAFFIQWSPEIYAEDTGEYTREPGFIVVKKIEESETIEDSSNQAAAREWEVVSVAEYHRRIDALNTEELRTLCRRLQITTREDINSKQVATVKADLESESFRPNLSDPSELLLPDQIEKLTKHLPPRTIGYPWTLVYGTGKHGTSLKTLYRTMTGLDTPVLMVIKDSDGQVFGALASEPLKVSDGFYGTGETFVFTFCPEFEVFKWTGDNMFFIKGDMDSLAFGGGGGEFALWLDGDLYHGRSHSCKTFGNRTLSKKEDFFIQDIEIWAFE", "probe-labelled cysteine peptide fold change": 0.00922},
      {"target": "NSUN2_Q08J23_758_AGEPNSPDAEEANSPDVTAGCDPAGVHPPR (UniProt Q08J23)", "sequence (Q08J23 whole entry, looked up)": "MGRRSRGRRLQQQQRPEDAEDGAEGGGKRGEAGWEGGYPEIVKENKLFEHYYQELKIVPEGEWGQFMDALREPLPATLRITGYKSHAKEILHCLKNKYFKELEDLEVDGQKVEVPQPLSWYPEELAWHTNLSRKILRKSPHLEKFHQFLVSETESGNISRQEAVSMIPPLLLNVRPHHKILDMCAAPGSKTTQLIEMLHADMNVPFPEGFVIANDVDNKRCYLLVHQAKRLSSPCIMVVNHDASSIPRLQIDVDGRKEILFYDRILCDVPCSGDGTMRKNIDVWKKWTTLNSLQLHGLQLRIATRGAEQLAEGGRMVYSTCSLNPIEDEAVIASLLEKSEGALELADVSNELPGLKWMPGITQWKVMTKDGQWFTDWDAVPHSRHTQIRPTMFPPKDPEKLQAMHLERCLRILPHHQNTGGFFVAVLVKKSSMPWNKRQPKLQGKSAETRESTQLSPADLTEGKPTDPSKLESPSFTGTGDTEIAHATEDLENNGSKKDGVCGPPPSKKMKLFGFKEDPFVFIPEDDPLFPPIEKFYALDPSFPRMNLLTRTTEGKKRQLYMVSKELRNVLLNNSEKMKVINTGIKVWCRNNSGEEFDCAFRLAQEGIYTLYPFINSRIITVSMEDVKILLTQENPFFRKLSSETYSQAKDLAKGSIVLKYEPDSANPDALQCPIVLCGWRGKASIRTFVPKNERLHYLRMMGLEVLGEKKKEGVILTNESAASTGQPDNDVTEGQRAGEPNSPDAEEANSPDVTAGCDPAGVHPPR", "probe-labelled cysteine peptide fold change": -0.194},
      {"target": "OGFR_Q9NZT2_87_HNYPDLVERDCNGDTPNLSFYR (UniProt Q9NZT2)", "probe-labelled cysteine peptide fold change": -0.169},
      {"target": "OCIAD2_Q56VL3_130+137_HCLLTCEECK (UniProt Q56VL3)", "sequence (Q56VL3 whole entry, looked up)": "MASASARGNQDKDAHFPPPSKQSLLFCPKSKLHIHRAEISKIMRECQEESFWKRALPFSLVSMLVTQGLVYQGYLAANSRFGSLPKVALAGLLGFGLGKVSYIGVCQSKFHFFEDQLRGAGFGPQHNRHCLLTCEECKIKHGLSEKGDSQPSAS", "probe-labelled cysteine peptide fold change": -0.0269},
      {"target": "NMD3_Q96D46_71_YFQPPGTWIQCALESR (UniProt Q96D46)", "probe-labelled cysteine peptide fold change": 0.274},
      {"target": "NSF_P46459_21_CPTDELSLTNCAVVNEK (UniProt P46459)", "sequence (P46459 whole entry, looked up)": "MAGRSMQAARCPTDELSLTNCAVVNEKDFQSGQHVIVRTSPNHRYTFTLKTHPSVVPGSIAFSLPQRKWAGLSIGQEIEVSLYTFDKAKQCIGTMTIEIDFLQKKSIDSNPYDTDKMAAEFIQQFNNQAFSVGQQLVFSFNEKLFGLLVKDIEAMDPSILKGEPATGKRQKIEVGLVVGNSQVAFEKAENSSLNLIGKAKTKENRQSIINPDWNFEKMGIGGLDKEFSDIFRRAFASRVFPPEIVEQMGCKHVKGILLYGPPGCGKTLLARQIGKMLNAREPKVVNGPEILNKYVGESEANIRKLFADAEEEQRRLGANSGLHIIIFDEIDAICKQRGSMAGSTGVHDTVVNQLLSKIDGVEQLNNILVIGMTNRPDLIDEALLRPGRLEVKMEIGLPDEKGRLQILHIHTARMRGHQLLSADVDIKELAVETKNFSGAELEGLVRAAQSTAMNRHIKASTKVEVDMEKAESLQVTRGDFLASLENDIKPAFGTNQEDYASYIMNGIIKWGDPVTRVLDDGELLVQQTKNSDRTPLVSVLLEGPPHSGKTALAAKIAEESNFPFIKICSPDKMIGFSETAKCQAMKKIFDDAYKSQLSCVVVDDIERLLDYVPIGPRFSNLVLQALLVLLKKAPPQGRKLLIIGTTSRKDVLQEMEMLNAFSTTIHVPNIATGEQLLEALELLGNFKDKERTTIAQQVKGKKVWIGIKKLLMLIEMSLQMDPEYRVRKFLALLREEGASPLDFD", "probe-labelled cysteine peptide fold change": -0.173},
      {"target": "NAIP_Q13075_1335_HFTECIK (UniProt Q13075)", "probe-labelled cysteine peptide fold change": 0.0839},
      {"target": "P3H1_Q32P28_123_CLGPPAAHSLSEEMELEFR (UniProt Q32P28)", "probe-labelled cysteine peptide fold change": 0.362},
      {"target": "NONO_Q15233_208_CSEGSFLLTTFPR (UniProt Q15233)", "probe-labelled cysteine peptide fold change": -0.102},
      {"target": "NUDT16L1_Q9BRJ7_88_VLGLGLGCLR (UniProt Q9BRJ7)", "sequence (Q9BRJ7 whole entry, looked up)": "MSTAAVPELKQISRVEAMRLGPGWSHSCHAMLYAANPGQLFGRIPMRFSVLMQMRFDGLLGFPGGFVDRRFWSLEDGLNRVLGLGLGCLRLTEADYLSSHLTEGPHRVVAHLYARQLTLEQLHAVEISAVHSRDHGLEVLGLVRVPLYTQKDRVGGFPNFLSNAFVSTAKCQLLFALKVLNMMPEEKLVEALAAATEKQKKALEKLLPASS", "probe-labelled cysteine peptide fold change": -0.287},
      {"target": "P3H1_Q32P28_483_VVMDGVISDHECQELQR (UniProt Q32P28)", "probe-labelled cysteine peptide fold change": 0.0375},
      {"target": "NF1_P21359_1016_LCQLVEVMMAR (UniProt P21359)", "probe-labelled cysteine peptide fold change": 0.0392},
      {"target": "NCKAP1L_P55160_36_TCSDPK (UniProt P55160)", "probe-labelled cysteine peptide fold change": -0.356},
      {"target": "NT5DC1_Q5TFE4_119_HFLSDTGMACR (UniProt Q5TFE4)", "sequence (Q5TFE4 whole entry, looked up)": "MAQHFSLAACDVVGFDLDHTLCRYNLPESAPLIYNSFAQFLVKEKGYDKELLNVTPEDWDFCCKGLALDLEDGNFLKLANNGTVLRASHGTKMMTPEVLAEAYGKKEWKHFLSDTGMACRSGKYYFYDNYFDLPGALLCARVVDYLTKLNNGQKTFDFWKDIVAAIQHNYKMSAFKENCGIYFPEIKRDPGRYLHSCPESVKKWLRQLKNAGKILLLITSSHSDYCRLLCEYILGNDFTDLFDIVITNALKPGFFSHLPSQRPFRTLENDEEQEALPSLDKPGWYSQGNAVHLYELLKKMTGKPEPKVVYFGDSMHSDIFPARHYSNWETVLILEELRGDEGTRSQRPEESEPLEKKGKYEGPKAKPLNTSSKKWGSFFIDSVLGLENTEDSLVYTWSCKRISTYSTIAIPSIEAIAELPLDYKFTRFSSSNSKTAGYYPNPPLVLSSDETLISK", "probe-labelled cysteine peptide fold change": -0.525},
      {"target": "NCOR1_O75376_987_QEQIDLECR (UniProt O75376)", "probe-labelled cysteine peptide fold change": -0.0519},
      {"target": "NDUFAB1_O14561_140_LMCPQEIVDYIADK (UniProt O14561)", "probe-labelled cysteine peptide fold change": 0.0668},
      {"target": "OPLAH_O14841_466_VANEAMCRPIR (UniProt O14841)", "probe-labelled cysteine peptide fold change": 0.178},
      {"target": "NAE1_Q13564_34_LWGDHGQEALESAHVCLINATATGTEILK (UniProt Q13564)", "probe-labelled cysteine peptide fold change": 0.173}
    ]},
    {"compound": "Cc1cc(ccc1-c1ccccc1)C(=O)N1CCCN(CC1)C(=O)CCl [compound 10]", "experiment": "probe-labelled cysteine peptide fold change vs DMSO (competition) (log2 fold change); higher = less target engagement (more negative = stronger competition)", "conditions": "50 µM; THP-1; incubation time: 4 h", "values": [
      {"target": "OPA1_O60313_801_CNEEHPAYLASDEITTVR (UniProt O60313)", "probe-labelled cysteine peptide fold change": -0.156},
      {"target": "NDUFAF6_Q330K2_236_VFLPMDICMLHGVSQEDFLR (UniProt Q330K2)", "probe-labelled cysteine peptide fold change": 0.567},
      {"target": "NUP210_Q8TEM1_962_GVAMVHPLLPGSSTIMIHDLCLVFPAPAK (UniProt Q8TEM1)", "probe-labelled cysteine peptide fold change": 0.281},
      {"target": "NPEPPS_P55786_887_TIQQCCENILLNAAWLK (UniProt P55786)", "probe-labelled cysteine peptide fold change": -0.336},
      {"target": "P4HB_P07237_53+56_YLLVEFYAPWCGHCK (UniProt P07237)", "probe-labelled cysteine peptide fold change": -1.92},
      {"target": "OSBPL1A_Q9BXW6_387_ECDMAK (UniProt Q9BXW6)", "probe-labelled cysteine peptide fold change": -2.25},
      {"target": "NMNAT3_Q96T66_12_IPVVLLACGSFNPITNMHLR (UniProt Q96T66)", "probe-labelled cysteine peptide fold change": 1},
      {"target": "NUTF2_P61970_80_IQHSITAQDHQPTPDSCIISMVVGQLKADEDPIMGFHQMFLLK (UniProt P61970)", "probe-labelled cysteine peptide fold change": -1.1},
      {"target": "P4HB_P07237_397+400_KNVFVEFYAPWCGHCK (UniProt P07237)", "probe-labelled cysteine peptide fold change": -1.7},
      {"target": "NUP155_O75694_104_RVPLPPELVEQFGHMQCNCMMGVFPPISR (UniProt O75694)", "probe-labelled cysteine peptide fold change": -0.248},
      {"target": "MYO9B_Q13459_1279_SKPCGSPR (UniProt Q13459)", "probe-labelled cysteine peptide fold change": -1.2},
      {"target": "NUP88_Q99567_447_CFVEHILCTK (UniProt Q99567)", "probe-labelled cysteine peptide fold change": -0.168},
      {"target": "OGFOD2_Q6N063_209_FLQPLMALLYPDCGGGR (UniProt Q6N063)", "probe-labelled cysteine peptide fold change": 1.08},
      {"target": "PA2G4_Q9UQ80_87_GIAFPTSISVNNCVCHFSPLK (UniProt Q9UQ80)", "probe-labelled cysteine peptide fold change": -0.0395},
      {"target": "NFX1_Q12986_615_TCMDPVPSCGK (UniProt Q12986)", "probe-labelled cysteine peptide fold change": -0.233},
      {"target": "OXR1_Q8N573_410_SDTEHSTNEVGTLCHK (UniProt Q8N573)", "probe-labelled cysteine peptide fold change": -0.0971},
      {"target": "NSUN2_Q08J23_758_AGEPNSPDAEEANSPDVTAGCDPAGVHPPR (UniProt Q08J23)", "probe-labelled cysteine peptide fold change": 0.151},
      {"target": "OGFR_Q9NZT2_87_HNYPDLVERDCNGDTPNLSFYR (UniProt Q9NZT2)", "probe-labelled cysteine peptide fold change": -0.149},
      {"target": "OCIAD2_Q56VL3_130+137_HCLLTCEECK (UniProt Q56VL3)", "probe-labelled cysteine peptide fold change": -0.143},
      {"target": "NMD3_Q96D46_71_YFQPPGTWIQCALESR (UniProt Q96D46)", "probe-labelled cysteine peptide fold change": 0.174},
      {"target": "NSF_P46459_21_CPTDELSLTNCAVVNEK (UniProt P46459)", "probe-labelled cysteine peptide fold change": 0.166},
      {"target": "NAIP_Q13075_1335_HFTECIK (UniProt Q13075)", "probe-labelled cysteine peptide fold change": -0.266},
      {"target": "P3H1_Q32P28_123_CLGPPAAHSLSEEMELEFR (UniProt Q32P28)", "probe-labelled cysteine peptide fold change": 0.0519},
      {"target": "NONO_Q15233_208_CSEGSFLLTTFPR (UniProt Q15233)", "probe-labelled cysteine peptide fold change": 0.262},
      {"target": "NUDT16L1_Q9BRJ7_88_VLGLGLGCLR (UniProt Q9BRJ7)", "probe-labelled cysteine peptide fold change": -1.6},
      {"target": "P3H1_Q32P28_483_VVMDGVISDHECQELQR (UniProt Q32P28)", "probe-labelled cysteine peptide fold change": 0.105},
      {"target": "NF1_P21359_1016_LCQLVEVMMAR (UniProt P21359)", "probe-labelled cysteine peptide fold change": 0.0791},
      {"target": "NCKAP1L_P55160_36_TCSDPK (UniProt P55160)", "probe-labelled cysteine peptide fold change": -0.267},
      {"target": "NT5DC1_Q5TFE4_119_HFLSDTGMACR (UniProt Q5TFE4)", "probe-labelled cysteine peptide fold change": -1.75},
      {"target": "NCOR1_O75376_987_QEQIDLECR (UniProt O75376)", "probe-labelled cysteine peptide fold change": 0.329},
      {"target": "NDUFAB1_O14561_140_LMCPQEIVDYIADK (UniProt O14561)", "probe-labelled cysteine peptide fold change": 0.303},
      {"target": "OPLAH_O14841_466_VANEAMCRPIR (UniProt O14841)", "probe-labelled cysteine peptide fold change": 0.00561},
      {"target": "NAE1_Q13564_34_LWGDHGQEALESAHVCLINATATGTEILK (UniProt Q13564)", "probe-labelled cysteine peptide fold change": 0.162}
    ]}
  ]
}
